Positions count from the first letter of the chain named. Results are given in words; binding and its absence hold for the method and conditions named. Some results given as binding are weak or reduced against the parent protein; the word gives no strength. For some assays here: Sequences can lack the tags named with a protein.
What was measured:
Experiment in all cases: dual-color heterospecies partition (HSP) analysis, fluorescence fluctuation spectroscopy; live transfected cells co-expressing an EGFP-tagged PI 4-kinase and mCherry-tagged GABARAP; two-photon excitation at 1000 nm, 60 s; 24 h after transfection; L-15 medium with 10% fetal bovine serum; co-mobility on cytoplasmic vesicles
EGFP-PI4K2B (human) = EGFP-PI4K2B (human) (UniProt Q8TCG2)
[1] = biological target: T1, EGFP-PI4K2A-(91-478)^7A (rat) (UniProt Q99M64)
T1 sequence: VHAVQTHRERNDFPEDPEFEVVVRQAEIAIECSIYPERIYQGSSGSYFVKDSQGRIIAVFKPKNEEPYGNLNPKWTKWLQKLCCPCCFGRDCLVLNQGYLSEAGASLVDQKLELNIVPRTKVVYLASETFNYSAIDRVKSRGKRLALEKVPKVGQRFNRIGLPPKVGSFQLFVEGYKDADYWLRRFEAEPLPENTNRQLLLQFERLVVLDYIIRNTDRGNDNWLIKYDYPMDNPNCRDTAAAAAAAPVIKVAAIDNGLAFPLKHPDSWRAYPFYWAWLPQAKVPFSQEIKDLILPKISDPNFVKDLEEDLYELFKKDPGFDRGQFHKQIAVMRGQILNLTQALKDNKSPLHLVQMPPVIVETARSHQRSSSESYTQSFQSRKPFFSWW

The chains behind the UniProt entries cited, without tags or fusion partners.
UniProt Q8TCG2: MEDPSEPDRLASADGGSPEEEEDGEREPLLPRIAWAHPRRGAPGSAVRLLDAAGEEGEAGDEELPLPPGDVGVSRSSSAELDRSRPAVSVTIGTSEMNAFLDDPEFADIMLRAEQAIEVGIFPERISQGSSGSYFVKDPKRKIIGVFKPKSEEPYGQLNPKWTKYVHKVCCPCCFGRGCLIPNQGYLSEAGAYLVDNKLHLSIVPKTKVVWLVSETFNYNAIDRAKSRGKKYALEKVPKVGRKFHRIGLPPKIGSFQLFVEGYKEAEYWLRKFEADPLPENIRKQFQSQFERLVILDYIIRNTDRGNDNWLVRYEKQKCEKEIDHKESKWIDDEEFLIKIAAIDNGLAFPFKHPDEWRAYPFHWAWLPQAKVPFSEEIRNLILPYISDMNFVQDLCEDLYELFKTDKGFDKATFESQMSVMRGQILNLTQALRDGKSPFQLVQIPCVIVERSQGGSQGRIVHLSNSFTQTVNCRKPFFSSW
UniProt O95166: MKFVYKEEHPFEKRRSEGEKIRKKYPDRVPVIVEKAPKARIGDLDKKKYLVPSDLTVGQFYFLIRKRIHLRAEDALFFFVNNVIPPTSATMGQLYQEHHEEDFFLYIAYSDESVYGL

[2] = biological target: T2, EGFP-PI4K2A-(91-478)^WT (rat) (UniProt Q99M64)
T2 sequence: T1 sequence with A240D, A241W, A242V, A243M, A244V, A245R, A246E

[3] = biological target: T3, EGFP-PI4K2A (91-478) with residues 333MVRE336 mutated to alanine (rat) (UniProt Q99M64)
T3 sequence: T1 sequence with A240D, A241W, A242V

EGFP-PI4K2A^7A (rat) = biological target: T4, EGFP-PI4K2A^7A (rat) (UniProt Q99M64)
T4 sequence: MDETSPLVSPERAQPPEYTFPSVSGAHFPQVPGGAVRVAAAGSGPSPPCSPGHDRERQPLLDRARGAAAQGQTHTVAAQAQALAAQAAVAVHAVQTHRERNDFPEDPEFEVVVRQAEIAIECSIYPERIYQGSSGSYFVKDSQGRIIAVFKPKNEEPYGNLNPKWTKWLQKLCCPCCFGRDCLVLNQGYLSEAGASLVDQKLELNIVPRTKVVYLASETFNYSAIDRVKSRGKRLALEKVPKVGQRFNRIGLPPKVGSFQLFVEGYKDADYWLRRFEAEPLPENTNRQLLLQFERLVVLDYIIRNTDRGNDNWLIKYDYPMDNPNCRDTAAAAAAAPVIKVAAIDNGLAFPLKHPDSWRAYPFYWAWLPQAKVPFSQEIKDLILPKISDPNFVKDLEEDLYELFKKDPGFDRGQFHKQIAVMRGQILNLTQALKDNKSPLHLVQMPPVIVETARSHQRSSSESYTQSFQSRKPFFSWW

binding (EGFP-PI4K2B (human)): no binding
binding [1]: no binding
binding [2]: binds
binding [3]: binds
binding (EGFP-PI4K2A^7A (rat)): no binding
Substance: mCherry-GABARAP (wild type) (from UniProt O95166 1-117)
